Measured values published in publication PMC4336329 (PLoS ONE, 2015).
Hit rate of the full screen: of about 310,000 compounds, about 14,000 (4.5%) showed an effect of 50% or more. Effects have a minus sign here. The list shows a part of the results.
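Also: peak tail current of the secondary pulse compared with the same well before compound.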

These molecules were tested against human ether-à-go-go-related gene (hERG) potassium channel (human, UniProt Q12809) (assay: primary screen, population patch clamp on CHO cells stably expressing hERG).
human ether-à-go-go-related gene (hERG) potassium channel, sequence (Q12809 whole entry, looked up): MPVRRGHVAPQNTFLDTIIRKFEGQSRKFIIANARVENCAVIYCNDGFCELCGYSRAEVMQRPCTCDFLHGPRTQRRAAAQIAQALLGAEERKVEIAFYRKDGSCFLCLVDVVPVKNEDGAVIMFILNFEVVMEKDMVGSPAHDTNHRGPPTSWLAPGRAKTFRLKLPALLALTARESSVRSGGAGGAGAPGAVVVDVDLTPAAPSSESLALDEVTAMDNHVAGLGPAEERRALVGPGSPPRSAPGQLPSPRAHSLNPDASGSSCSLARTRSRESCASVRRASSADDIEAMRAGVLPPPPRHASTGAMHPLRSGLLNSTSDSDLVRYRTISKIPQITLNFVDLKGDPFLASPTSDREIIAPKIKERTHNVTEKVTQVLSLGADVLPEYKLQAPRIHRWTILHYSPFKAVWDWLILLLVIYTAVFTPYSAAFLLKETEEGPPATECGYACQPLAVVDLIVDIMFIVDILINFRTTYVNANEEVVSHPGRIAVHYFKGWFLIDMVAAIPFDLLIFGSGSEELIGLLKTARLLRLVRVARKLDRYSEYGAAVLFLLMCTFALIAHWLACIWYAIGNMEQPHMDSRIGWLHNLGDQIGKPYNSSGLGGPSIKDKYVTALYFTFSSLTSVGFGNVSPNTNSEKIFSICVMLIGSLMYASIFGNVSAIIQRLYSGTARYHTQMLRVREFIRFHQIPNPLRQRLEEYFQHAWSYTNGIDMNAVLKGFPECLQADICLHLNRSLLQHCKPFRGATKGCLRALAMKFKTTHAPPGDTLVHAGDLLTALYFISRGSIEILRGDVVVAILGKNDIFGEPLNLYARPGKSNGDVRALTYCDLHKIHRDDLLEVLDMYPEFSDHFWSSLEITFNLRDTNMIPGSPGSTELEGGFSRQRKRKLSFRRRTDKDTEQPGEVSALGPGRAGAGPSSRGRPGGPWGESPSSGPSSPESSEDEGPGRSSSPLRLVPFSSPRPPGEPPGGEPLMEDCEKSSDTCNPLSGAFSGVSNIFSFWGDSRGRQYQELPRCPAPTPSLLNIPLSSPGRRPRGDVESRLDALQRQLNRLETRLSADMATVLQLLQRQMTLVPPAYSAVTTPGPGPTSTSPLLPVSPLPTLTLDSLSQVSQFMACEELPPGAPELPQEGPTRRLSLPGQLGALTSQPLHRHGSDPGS
With O=S(=O)(c1ccc(Cl)cc1)N1CCC2(CC1)OCCO2 the “hERG current change (%, negative = inhibition) at 10uM” value was -7.7%. In the case of Cc1cccc(N=C2NN=C(c3c(C)[nH]c4ccccc34)CS2)c1, the “hERG current change (%, negative = inhibition) at 10uM” value is reported as 15.9%. O=C1c2ccccc2C(=O)N1CCc1ccccn1 was tested, and the “hERG current change (%, negative = inhibition) at 10uM” value was 14.9%. CCN(CC(=O)Nc1ccccc1C(F)(F)F)C(=O)CSCc1c(C)noc1C was tested, and the “hERG current change (%, negative = inhibition) at 10uM” value was 0.201%. With CCN1C(=O)NC(c2ccccc2)C1=O (centres unmarked) the “hERG current change (%, negative = inhibition) at 10uM” value was 14.7%. For Cl.OC(COc1ccc(Cl)cc1)CN1CCC(Cc2ccccc2)CC1 (centres unmarked), the “hERG current change (%, negative = inhibition) at 10uM” value was -81.4%. With O=C(COC(=O)c1cccc(O)c1)Nc1ccc(OC(F)F)cc1 the “hERG current change (%, negative = inhibition) at 10uM” value was -34.9%. CC(C)NC(=O)CN1C(=O)c2cccc3cccc1c23 was tested, and the “hERG current change (%, negative = inhibition) at 10uM” value was 0.29%. In the case of O=C(N/N=C/c1sc(N2CCOCC2)nc1-c1ccccc1)c1ccccc1Cl, the “hERG current change (%, negative = inhibition) at 10uM” value is reported as 10.3%. In the case of Cc1ccc(C2C3=C(CC(C)(C)CC3=O)NC3=C2C(=O)CC(C)(C)C3)o1, the “hERG current change (%, negative = inhibition) at 10uM” value is reported as -0.157%. In the case of CC(C)c1onc(C(=O)N2CCN(Cc3ccccc3)CC2)c1[N+](=O)[O-], the “hERG current change (%, negative = inhibition) at 10uM” value is reported as -17.9%. In the case of O=c1c2cc(N3CCOCC3)ccc2[nH]c(=S)n1CCc1ccccc1, the “hERG current change (%, negative = inhibition) at 10uM” value is reported as 13.3%. In the case of CCOc1ccc(/C=C2/Sc3ccc(C(=O)NCC4CCCO4)cc3N(C)C2=O)cc1OC (centres unmarked), the “hERG current change (%, negative = inhibition) at 10uM” value is reported as -13.7%. O=C(Cc1ccccc1)NCCSC1CCCCC1 was tested, and the “hERG current change (%, negative = inhibition) at 10uM” value was 3.35%. In the case of O=C(CN1C(=O)NC2(CCCC2)C1=O)N1CCN(S(=O)(=O)c2ccccc2Br)CC1, the “hERG current change (%, negative = inhibition) at 10uM” value is reported as 0.884%. With Cc1ccc(F)cc1NC(=O)CCC(=O)c1cccs1 the “hERG current change (%, negative = inhibition) at 10uM” value was 8.02%. COc1ccc2cc(C3CC(c4ccco4)=NN3S(=O)(=O)c3ccccc3)c(Cl)nc2c1 (centres unmarked) was tested, and the “hERG current change (%, negative = inhibition) at 10uM” value was 4.38%. In the case of Cc1nnc(SCC2=C(C(=O)O)N3C(=O)C(NC(=O)Cn4nc(C(F)F)c(Cl)c4C)C3SC2)s1 (centres unmarked), the “hERG current change (%, negative = inhibition) at 10uM” value is reported as 2.67%. In the case of Cc1ccccc1-n1c(-c2ccc3ccccc3n2)n[nH]c1=S, the “hERG current change (%, negative = inhibition) at 10uM” value is reported as 22.2%. In the case of CCc1ccc2nc(N(CCN(C)C)C(=O)c3ccc4ccccc4c3)sc2c1.Cl, the “hERG current change (%, negative = inhibition) at 10uM” value is reported as 0.369%. For C=CCN1CC(C(=O)N2CCC(Cc3ccc(Cl)cc3)(C(=O)OCC)CC2)CC1=O (centres unmarked), the “hERG current change (%, negative = inhibition) at 10uM” value was -72.4%. O=C(COC(=O)c1ccccn1)Nc1cccc2ccccc12 was tested, and the “hERG current change (%, negative = inhibition) at 10uM” value was 16.4%. For COC(=O)c1ccccc1NC(=O)CNc1cc(OC)c(OC)cc1C, the “hERG current change (%, negative = inhibition) at 10uM” value was -20.8%. For CC(=Nc1ccccc1)C1=C(O)CCCC1=O, the “hERG current change (%, negative = inhibition) at 10uM” value was 6.23%. For N=c1oc2ccccc2cc1-c1nc(-c2ccc(Cl)cc2)cs1, the “hERG current change (%, negative = inhibition) at 10uM” value was 10.1%. With Cc1c(C)c2ccc(OC(C)C(=O)NCCCn3ccnc3)c(C)c2oc1=O (centres unmarked) the “hERG current change (%, negative = inhibition) at 10uM” value was -6.05%. With CCOc1ccc(-n2nc3ccc(N)cc3n2)cc1 the “hERG current change (%, negative = inhibition) at 10uM” value was 16.1%. With Cc1ccc(C2=Nc3ccccc3NC(C)(c3ccc(C)o3)C2)o1 (centres unmarked) the “hERG current change (%, negative = inhibition) at 10uM” value was -2.12%. For COc1ccc(C2NN=C(c3ccc(C)cc3)S2)cc1 (centres unmarked), the “hERG current change (%, negative = inhibition) at 10uM” value was 4.2%. With CCNC(=S)NNC(=O)c1c(Cl)c(C)nn1C the “hERG current change (%, negative = inhibition) at 10uM” value was 17.1%. In the case of CCOC(=O)c1c(C2CCN(C(=O)OCC)CC2)nc2ccccn12, the “hERG current change (%, negative = inhibition) at 10uM” value is reported as -47.1%. In the case of Cc1ccc(S(=O)(=O)Nc2ccc(N=Nc3ccc(O)cc3)cc2)cc1, the “hERG current change (%, negative = inhibition) at 10uM” value is reported as 24.1%. With Oc1ccccc1-c1n[nH]c(=S)n1Cc1ccco1 the “hERG current change (%, negative = inhibition) at 10uM” value was 15.8%. For CN(C)S(=O)(=O)c1ccc(N2CCCC2)c(C(=O)NC2(C)CCS(=O)(=O)C2)c1 (centres unmarked), the “hERG current change (%, negative = inhibition) at 10uM” value was 9.41%. In the case of Clc1ccc(Nc2nc(C3CC3)cs2)cc1, the “hERG current change (%, negative = inhibition) at 10uM” value is reported as 13.5%. For COc1ccc(-c2ccc(NS(=O)(=O)c3cc([N+](=O)[O-])c(C)c([N+](=O)[O-])c3)cc2)nn1, the “hERG current change (%, negative = inhibition) at 10uM” value was -11.3%. In the case of CCN(CC)CC(=O)Nc1ccc(C)cc1C(=O)c1ccccc1, the “hERG current change (%, negative = inhibition) at 10uM” value is reported as -19.5%. With Cc1cc(C)cc(C(=O)N(CCc2ccccc2)C2CC3CCC(C2)N3C)c1.Cl (centres unmarked) the “hERG current change (%, negative = inhibition) at 10uM” value was -56.5%. CN(C)S(=O)(=O)c1cc(C(=O)NCCCn2ccc3ccccc32)ccc1Cl was tested, and the “hERG current change (%, negative = inhibition) at 10uM” value was -18.7%. In the case of O=C(COc1cccc2cccnc12)Nc1nccs1, the “hERG current change (%, negative = inhibition) at 10uM” value is reported as -13.5%. For NS(=O)(=O)c1ccc(CCNC(=O)CSc2ccc([N+](=O)[O-])cc2)cc1, the “hERG current change (%, negative = inhibition) at 10uM” value was -37.8%. With CCOc1ccc(CNC(=O)c2ccc3c(c2)N(CC)CCS3)cc1 the “hERG current change (%, negative = inhibition) at 10uM” value was 8.06%. In the case of CC1CCc2c(sc(Nc3nc4c(F)cccc4s3)c2C(N)=O)C1 (centres unmarked), the “hERG current change (%, negative = inhibition) at 10uM” value is reported as 38.3%. For C=CCNC(=O)c1onc(CSc2ccccc2F)c1C(=O)O, the “hERG current change (%, negative = inhibition) at 10uM” value was 30.9%. In the case of CCN(CC)C(=O)c1sc(NC(=O)c2cccs2)c(C#N)c1C, the “hERG current change (%, negative = inhibition) at 10uM” value is reported as 19.9%. In the case of O=C(COC(=O)C1CC1)Nc1ccc(N=Nc2ccccc2)cc1, the “hERG current change (%, negative = inhibition) at 10uM” value is reported as 12.5%. For COc1ccc(N(C(=O)C2COc3ccccc3O2)C(C(=O)NC2CCCCC2)c2ccccc2)cc1OC (centres unmarked), the “hERG current change (%, negative = inhibition) at 10uM” value was -3.29%. CCCN(CC(=O)Nc1ccccc1C)C(=O)c1ccc(NC2CC2)c([N+](=O)[O-])c1 was tested, and the “hERG current change (%, negative = inhibition) at 10uM” value was 10.5%. With CCOC(=O)C1=C(CC)Nc2ccccc2N=C1NC(=O)c1ccc(OC)c(S(=O)(=O)N2CCCCC2C)c1 (centres unmarked) the “hERG current change (%, negative = inhibition) at 10uM” value was -9.14%. Cc1cc(C(=O)OCC(=O)Nc2cccc(S(N)(=O)=O)c2)c2ccccc2n1 was tested, and the “hERG current change (%, negative = inhibition) at 10uM” value was -4.62%. O=C(CCCn1cc([N+](=O)[O-])cn1)Nc1ccc2c(c1)OCO2 was tested, and the “hERG current change (%, negative = inhibition) at 10uM” value was 4.52%. For CC(C)(C)NC(=O)CN(C(=O)CCC(=O)Nc1nccs1)c1ccc(F)cc1, the “hERG current change (%, negative = inhibition) at 10uM” value was 12.6%. For CN1CCC(N(C)c2ccc(C(N)=O)cc2[N+](=O)[O-])CC1, the “hERG current change (%, negative = inhibition) at 10uM” value was 5.32%. For COC(=O)CSc1[nH]c2ccccc2c1[N+](=O)[O-], the “hERG current change (%, negative = inhibition) at 10uM” value was 7.33%. For CN(c1ccc(C(=O)N2CCN(Cc3ccccc3)CC2)cc1)S(=O)(=O)c1ccccc1, the “hERG current change (%, negative = inhibition) at 10uM” value was -36.4%. With COc1ccc(N2C(=O)c3ccccc3C(C)(C)C2=O)cc1 the “hERG current change (%, negative = inhibition) at 10uM” value was -0.639%.
